{"source": "paper PMC4336329", "about": "(PLoS ONE, 2015)", "note": "In all, about 310,000 compounds went through this assay and about 2,200 (0.71%) showed an effect of 50% or more. The effect is printed as a negative number. The list shows a part of the results."}
{"molecular_target": "human ether-à-go-go-related gene (hERG) potassium channel (human, UniProt Q12809)", "sequence (Q12809 whole entry, looked up)": "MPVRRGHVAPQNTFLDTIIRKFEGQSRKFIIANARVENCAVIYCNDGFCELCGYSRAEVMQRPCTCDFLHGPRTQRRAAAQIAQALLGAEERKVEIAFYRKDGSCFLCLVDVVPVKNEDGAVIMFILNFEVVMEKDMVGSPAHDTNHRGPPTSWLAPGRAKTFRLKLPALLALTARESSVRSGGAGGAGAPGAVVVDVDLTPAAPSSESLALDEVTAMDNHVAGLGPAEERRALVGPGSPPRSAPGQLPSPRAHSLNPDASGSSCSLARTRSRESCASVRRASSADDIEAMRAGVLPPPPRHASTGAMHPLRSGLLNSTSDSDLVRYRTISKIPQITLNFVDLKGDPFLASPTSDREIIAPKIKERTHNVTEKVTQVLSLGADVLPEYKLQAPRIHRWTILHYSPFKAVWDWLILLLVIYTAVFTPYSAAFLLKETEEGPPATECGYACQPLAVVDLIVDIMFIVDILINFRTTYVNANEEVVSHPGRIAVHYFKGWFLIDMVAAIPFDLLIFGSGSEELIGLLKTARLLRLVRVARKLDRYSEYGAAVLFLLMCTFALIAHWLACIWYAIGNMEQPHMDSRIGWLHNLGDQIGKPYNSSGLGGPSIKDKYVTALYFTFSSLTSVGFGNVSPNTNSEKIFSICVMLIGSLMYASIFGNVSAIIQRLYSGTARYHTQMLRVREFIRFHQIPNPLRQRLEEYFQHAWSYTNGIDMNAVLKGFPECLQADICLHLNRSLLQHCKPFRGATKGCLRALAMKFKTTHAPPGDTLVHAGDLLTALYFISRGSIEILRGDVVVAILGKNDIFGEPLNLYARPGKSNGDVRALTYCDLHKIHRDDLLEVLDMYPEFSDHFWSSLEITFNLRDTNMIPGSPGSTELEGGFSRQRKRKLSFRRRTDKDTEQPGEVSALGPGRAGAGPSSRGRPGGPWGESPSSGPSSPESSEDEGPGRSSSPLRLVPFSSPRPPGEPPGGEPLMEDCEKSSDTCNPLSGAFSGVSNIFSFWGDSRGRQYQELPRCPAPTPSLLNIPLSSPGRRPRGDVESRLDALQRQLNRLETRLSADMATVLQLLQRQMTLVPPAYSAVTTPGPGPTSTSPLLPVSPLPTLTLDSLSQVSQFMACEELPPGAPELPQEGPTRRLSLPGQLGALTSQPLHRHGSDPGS", "assay": "primary screen, population patch clamp on CHO cells stably expressing hERG", "units": {"hERG current change (%, negative = inhibition) at 1uM": "%"}}
{"smiles": "CCc1ccc(NC(=S)N(CCC(C)C)C2CCN(C(C)=O)CC2)cc1", "hERG current change (%, negative = inhibition) at 1uM": 4.58}
{"smiles": "COc1cc(OC)c(OC)cc1CNCCNC(=O)c1ccco1", "hERG current change (%, negative = inhibition) at 1uM": 16.5}
{"smiles": "O=C(NCC1CCCO1)c1ccc(COc2ccc(Cl)cc2)cc1", "note": "(stereo not drawn)", "hERG current change (%, negative = inhibition) at 1uM": 3.24}
{"smiles": "Cc1cc(C)c(C)c(S(=O)(=O)Nc2cccc(-n3cnnn3)c2)c1C", "hERG current change (%, negative = inhibition) at 1uM": 18.3}
{"smiles": "Cc1nnc2n1N=C(c1ccc3c(c1)NC(=O)CO3)CS2.Cl", "hERG current change (%, negative = inhibition) at 1uM": 7.37}
{"smiles": "O=C(NN=C1CCCCCC1)NC1CCCCC1", "hERG current change (%, negative = inhibition) at 1uM": -0.0518}
{"smiles": "C=CCn1c(SCC(=O)NCCc2ccccc2)nnc1C(C)NC(=O)c1cccs1", "note": "(stereo not drawn)", "hERG current change (%, negative = inhibition) at 1uM": 11.2}
{"smiles": "CC(C)NC(=O)c1ccc(COc2ccc(C(C)(C)C)cc2)o1", "hERG current change (%, negative = inhibition) at 1uM": 10.8}
{"smiles": "O=C(CCC1N=C2c3ccccc3N=C(SCC(=O)NCC3CCCO3)N2C1=O)NCc1ccc(F)cc1", "note": "(stereo not drawn)", "hERG current change (%, negative = inhibition) at 1uM": 6.16}
{"smiles": "Cc1ccc(S(=O)(=O)Cn2cnnn2)cc1", "hERG current change (%, negative = inhibition) at 1uM": 9.39}
{"smiles": "C=CCNC(=O)c1oc2ccc(S(=O)(=O)N3CCCCC3)cc2c1C", "hERG current change (%, negative = inhibition) at 1uM": 12.7}
{"smiles": "CCCc1[nH]nc2c1C1(C(=O)N(CC(N)=O)c3ccccc31)C(C(=O)OC)=C(N)O2", "note": "(stereo not drawn)", "hERG current change (%, negative = inhibition) at 1uM": 4.35}
{"smiles": "CCC(=O)N1CCc2cc(S(=O)(=O)CCC(=O)NCCc3ccc(OC)c(OC)c3)ccc21", "hERG current change (%, negative = inhibition) at 1uM": 5.24}
{"smiles": "COc1ccc(-c2nnc3ccc(SCC(=O)Nc4nccs4)nn23)cc1OC", "hERG current change (%, negative = inhibition) at 1uM": 3.93}
{"smiles": "Cc1nnc2c(N(C)S(=O)(=O)c3ccccc3)nc3ccccc3n12", "hERG current change (%, negative = inhibition) at 1uM": 14.6}
{"smiles": "O=C(O)c1ccccc1C(=O)Nc1ccccc1[N+](=O)[O-]", "hERG current change (%, negative = inhibition) at 1uM": 12.5}
{"smiles": "O=C(N/N=C/c1ccc(O)cc1)/C(=C/c1ccc([N+](=O)[O-])cc1)NC(=O)c1ccccc1", "hERG current change (%, negative = inhibition) at 1uM": 14.7}
{"smiles": "O=C(CSc1nc(-c2ccccc2)c(-c2ccccc2)o1)NCCCO", "hERG current change (%, negative = inhibition) at 1uM": -5.16}
{"smiles": "COc1ccc(/C([O-])=C(/C(=S)Nc2ccc(C)c(C)c2)n2c[n+](C)c3ccccc32)cc1OC", "hERG current change (%, negative = inhibition) at 1uM": 7.62}
{"smiles": "C/C(CCc1ccccc1)=N\\NC(=O)CCc1ccccc1", "hERG current change (%, negative = inhibition) at 1uM": -0.863}
{"smiles": "CCOC(=O)/C(C#N)=C/c1ccc(N2CCN(Cc3ccccc3)CC2)cc1", "hERG current change (%, negative = inhibition) at 1uM": 5.93}
{"smiles": "CC1(C)Cc2c(c(-c3ccccc3)nc(N3CCCC3)c2C(N)=O)CO1", "hERG current change (%, negative = inhibition) at 1uM": 1.91}
{"smiles": "Oc1[nH]c2ccccc2c1C=Nc1ccccc1", "hERG current change (%, negative = inhibition) at 1uM": -0.519}
{"smiles": "COC(=O)c1cc(C(=O)OCC(=O)c2ccc[nH]2)cc([N+](=O)[O-])c1", "hERG current change (%, negative = inhibition) at 1uM": -0.0222}
{"smiles": "COc1ccc(O[C@H]2C=C[C@@H](c3ccccc3)O[C@@H]2CO/N=C(\\C)CCN2CCc3nc(-c4ccccc4)c(-c4ccccc4)cc3C2)cc1", "hERG current change (%, negative = inhibition) at 1uM": 8.64}
{"smiles": "COc1ccccc1NS(=O)(=O)c1cc(NC(=O)c2ccncc2)ccc1N1CCCC1", "hERG current change (%, negative = inhibition) at 1uM": 11.6}
{"smiles": "COc1ccc(N(CC(=O)NCc2ccccc2Cl)S(=O)(=O)c2c(C)n[nH]c2C)cc1", "hERG current change (%, negative = inhibition) at 1uM": 14.4}
{"smiles": "COc1cccc(OC)c1OCCOCCN1CCN(C)CC1", "hERG current change (%, negative = inhibition) at 1uM": 19.8}
{"smiles": "O=C(Nc1ccc2c(c1)C(=O)OC2)Nc1cccc2ccccc12", "hERG current change (%, negative = inhibition) at 1uM": 3.96}
{"smiles": "Cc1onc(-c2c(F)cccc2Cl)c1C(=O)NNC(=O)C1CCN(Cc2ccccc2)CC1", "hERG current change (%, negative = inhibition) at 1uM": -0.35}
{"smiles": "CCn1c(SCC(=O)Nc2nccs2)nnc1-c1cccnc1", "hERG current change (%, negative = inhibition) at 1uM": 10.9}
{"smiles": "Cc1ccccc1Cn1nnc(C(=O)Nc2ccc3c(c2)OCCO3)c1N", "hERG current change (%, negative = inhibition) at 1uM": 8.16}
{"smiles": "COc1cc(/C=C/C(=O)O)cc(S(=O)(=O)Nc2ccccc2C(=O)NCCc2ccccc2)c1OC", "hERG current change (%, negative = inhibition) at 1uM": 16.9}
{"smiles": "CCN(CC)S(=O)(=O)c1ccc(OC)c(NC(=O)Cc2cccs2)c1", "hERG current change (%, negative = inhibition) at 1uM": 13.1}
{"smiles": "O=C(Nc1ccccc1Br)C(=O)N1CCCC1", "hERG current change (%, negative = inhibition) at 1uM": 5.46}
{"smiles": "C=CCOC(=O)C1=C(C)NC(=O)NC1c1ccc(Cl)cc1", "note": "(stereo not drawn)", "hERG current change (%, negative = inhibition) at 1uM": 9.35}
{"smiles": "O=C(COc1ccccc1Cl)Nc1ccc2oc(=O)ccc2c1", "hERG current change (%, negative = inhibition) at 1uM": 15.7}
{"smiles": "Cc1c(OCC(=O)NCC(O)c2ccccc2)ccc2c3c(c(=O)oc12)CCCC3", "note": "(stereo not drawn)", "hERG current change (%, negative = inhibition) at 1uM": 1.64}
{"smiles": "COc1ccc(CN2CCn3ncc(C(=O)Nc4ccc(Cl)cc4Cl)c3C2=O)cc1", "hERG current change (%, negative = inhibition) at 1uM": 2.84}
{"smiles": "O=C(Oc1cccc([N+](=O)[O-])c1)c1cc(-c2ccccc2)nc2ccccc12", "hERG current change (%, negative = inhibition) at 1uM": 9.64}
{"smiles": "CC(Sc1nnc(C2CC2)n1C1CC1)C(=O)Nc1ccccc1C#N", "note": "(stereo not drawn)", "hERG current change (%, negative = inhibition) at 1uM": 0.842}
{"smiles": "O=C1CN(C(=O)COC(=O)c2oc3ccccc3c2COc2ccccc2)c2ccccc2N1", "hERG current change (%, negative = inhibition) at 1uM": 4.92}
{"smiles": "Cc1noc(N)c1C(=O)Nc1ccc(F)c(Cl)c1", "hERG current change (%, negative = inhibition) at 1uM": 4.28}
{"smiles": "O=C1CCC(c2ccccc2)(c2ccccc2)CC1", "hERG current change (%, negative = inhibition) at 1uM": 2.17}
{"smiles": "Cc1cc(NC(=O)c2cc(-c3ccccc3)on2)no1", "hERG current change (%, negative = inhibition) at 1uM": 12.4}
{"smiles": "Cc1c(C(=O)N(C)C)sc2nc(-c3ccccn3)[nH]c(=O)c12", "hERG current change (%, negative = inhibition) at 1uM": -1.35}
{"smiles": "CC1CCCC(N2CCN(C(=O)c3cccc(F)c3)CC2)C1.O=C(O)C(=O)O", "note": "(stereo not drawn)", "hERG current change (%, negative = inhibition) at 1uM": 8.59}
{"smiles": "COc1ccccc1/C=C(/C(=O)OCC(=O)Nc1ccc(N(C)C)cc1)c1ccccc1", "hERG current change (%, negative = inhibition) at 1uM": 9.09}
{"smiles": "COCCN(C(=O)CCCC(=O)Nc1ccccn1)C(C(=O)NC1CCCC1)c1ccc(C)cc1", "note": "(stereo not drawn)", "hERG current change (%, negative = inhibition) at 1uM": 6.24}
{"smiles": "CCN(CC)S(=O)(=O)c1ccc(N2Cc3ccccc3C2=N)cc1", "hERG current change (%, negative = inhibition) at 1uM": 1.09}
{"smiles": "Cc1ccccc1NC(=O)c1cc(S(=O)(=O)N2CCOCC2)cn1C", "hERG current change (%, negative = inhibition) at 1uM": -6.38}
{"smiles": "CCN(CC)CCN(C(=O)c1cc2ccccc2cc1OC)c1nc2ccc(OC)cc2s1.Cl", "hERG current change (%, negative = inhibition) at 1uM": 13.9}
{"smiles": "O=C(Cc1ccc(-c2ccccc2)cc1)Nc1ncccc1O", "hERG current change (%, negative = inhibition) at 1uM": 11.9}
{"smiles": "COC(=O)Cc1c(C)c2ccc(OCC(=O)N3CCCC3)c(C)c2oc1=O", "hERG current change (%, negative = inhibition) at 1uM": 9.03}
